Where “and” joins values, the source holds several entries; their conditions need not be identical. Identical values can stand only once. ± gives the uncertainty stated by the source. The full ranking holds about 9,900 compounds; the median of “viability index relative to DMSO control” is about 1, and the lowest 2% start at about 0.85. Some of the results follow.
System: Plasmodium falciparum NF54 stage V gametocytes
Assay: viability index relative to DMSO control (fraction); higher = less gametocyte killing
Details: 2.5 µM, incubation time: 72 h
Method in brief: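 P. falciparum NF54 stage V gametocytes (serum-free medium, 0.75% gametocytemia, 1.25% hematocrit) were exposed to compound at 2.5 µM for 72 hr at 37°C under low oxygen, then stained with MitoTracker Red CMXRos and saponin for one to two hours. Red particles of 20–70 µm2 in one field per well were counted, and the viability index is that count scaled to the plate mean of solvent-only wells.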

[1] = library set: Broad Institute DOS
[2] = library set: Broad Institute Blood Stage

## COc1ccc(S(=O)(=O)Nc2ccc3c(c2)C(=O)N([C@H](C)CO)C[C@H](C)[C@H](CN(C)S(=O)(=O)c2ccc(Cl)cc2)OCCCC[C@H](C)O3)cc1
[1]
  viability index: 0.9557 ± 0.004

## CO[C@H]1CN(C)C(=O)c2ccc(NS(=O)(=O)c3ccc(C)cc3)cc2OC[C@@H](C)N(C)C[C@H]1C
[1]
  viability index: 1.05 ± 0.09

## CN1C(=O)c2cc(NS(=O)(=O)c3cccc(F)c3)ccc2OC[C@H]2O[C@H](CC(=O)NCCN3CCCCC3)CC[C@H]21
[1]
  viability index: 1.04 ± 0.035

## C[C@H]1CN([C@@H](C)CO)C(=O)CCCn2nncc2CO[C@H]1CN(C)Cc1ccc2c(c1)OCCN2C
[1]
  viability index: 1.02 ± 0.04

## COc1cccc(-c2cccc(-c3nc(C(=O)O)cc4c3[C@H](CCO)N(S(=O)C(C)(C)C)C4)c2)c1 (stereo not given in full)
[1]
  viability index: 1.03 ± 0.037

## C[C@@H]1CN([C@H](C)CO)C(=O)c2cc(NS(=O)(=O)c3cccs3)ccc2O[C@@H](C)CCCCO[C@@H]1CN(C)C(=O)c1ccncc1
[1]
  viability index: 1.14 ± 0.16

## COCC(=O)N1[C@@H](CO)[C@@H]2c3ccccc3NC[C@@H]21
[1]
  viability index: 0.96 ± 0.099

## CCCC(=O)Nc1ccc2c(c1)OC[C@@H](C)N(Cc1cc(F)ccc1F)C[C@@H](C)[C@H](OC)CN(C)C2=O
[2]
  viability index: 0.883 ± 0.078

## N#C[C@H]1[C@H](c2ccccc2C2=CCCC2)[C@@H](CO)N1C(=O)NC1CCCCC1
[1]
  viability index: 1.06 ± 0.028

## O=C(C[C@H]1C=C[C@@H](NC(=O)c2ccncc2)[C@H](CO)O1)NCC1CC1
[1]
  viability index: 1.029 ± 0.0019

## Cc1ccc(S(=O)(=O)N(C)C[C@H]2Oc3c(NS(C)(=O)=O)cccc3C(=O)N([C@@H](C)CO)C[C@H]2C)cc1
[1]
  viability index: 0.901 ± 0.019

## COc1ccc(NC(=O)N2C[C@@H]3N[C@H](C2)[C@H]3c2ccc(-c3ccncc3)cc2)cc1
[1]
  viability index: 1.14 ± 0.078

## C[C@@H]1CCCCO[C@H](CN(C)C(=O)c2ccncc2)[C@H](C)CN([C@@H](C)CO)C(=O)c2cc(NS(=O)(=O)c3cccs3)ccc2O1
[1]
  viability index: 1.16 ± 0.052

## COCCNC(=O)[C@H]1[C@H](CO)[C@H]2Cn3c(ccc(-c4ccc(F)cc4)c3=O)[C@@H]1N2C(=O)NC(C)C
[1]
  viability index: 1.02 ± 0.045

## C[C@H](CO)N1C[C@H](C)[C@@H](CN(C)Cc2ccc(Cl)c(Cl)c2)Oc2c(NS(=O)(=O)c3ccc(F)cc3)cccc2C1=O
[1]
  viability index: 1.07 ± 0.068

## C[C@@H]1CN([C@H](C)CO)C(=O)Cc2cc(NC(=O)CCC(F)(F)F)ccc2O[C@H]1CN(C)CC1CC1
[1]
  viability index: 0.95 ± 0.11

## C[C@@H]1CN([C@H](C)CO)C(=O)Cc2cc(NC(=O)CCN3CCOCC3)ccc2O[C@@H]1CN(C)Cc1ccc(C(=O)O)cc1
[1]
  viability index: 1 ± 0.17

## COc1ccc2c3c([nH]c2c1)[C@@H](CO)NC[C@]31CN(C1)C(=O)Nc1ccc(F)cc1F
[1]
  viability index: 0.99 ± 0.063

## CN(C)CC(=O)N[C@@H]1C=C[C@H](CC(=O)NCc2ccc(Cl)cc2)O[C@H]1CO
[1]
  viability index: 1.04 ± 0.045

## COc1ccc(CN2C[C@@H](O)COC[C@@H]3O[C@H](CC(=O)N(C)C)CC[C@H]32)cc1
[1]
  viability index: 0.964 ± 0.052

## CC(C)CC#Cc1ccc([C@@H]2[C@@H](CO)N3C(=O)CN(C(=O)c4cccc(F)c4)C[C@@H]23)cc1
[1]
  viability index: 1.01 ± 0.054

## C[C@H]1CN([C@@H](C)CO)C(=O)CCCn2cc(nn2)CO[C@@H]1CN(C)C(=O)NC1CCCCC1
[1]
  viability index: 1.01 ± 0.038

## COc1ccc2c3c([C@@H](CO)N(C[C@]33CCN(CC4CCCCC4)CC3)S(C)(=O)=O)n(C)c2c1
[1]
  viability index: 1.07 ± 0.036

## COCCNC(=O)C[C@H]1CC[C@@H]2[C@@H](COc3ccc(NC(=O)Nc4cccc(F)c4)cc3C(=O)N2C)O1
[1]
  viability index: 1.09 ± 0.12

## C[C@@H](O)C#Cc1ccc([C@H]2[C@H]3CN(CC4CC4)CCCCN3[C@H]2CO)cc1
[1]
  viability index: 1.034 ± 0.0055

## CO[C@H]1CN(C)C(=O)c2ccc(NS(=O)(=O)c3c(C)noc3C)cc2OC[C@H](C)NC[C@@H]1C
[1]
  viability index: 1.08 ± 0.069

## COc1ccc(NC(=O)N(C)C[C@@H]2OCc3cnnn3CCCC(=O)N([C@@H](C)CO)C[C@@H]2C)c(OC)c1
[1]
  viability index: 1.02 ± 0.043

## CC(C)(C)[S@](=O)N1Cc2cc(C(=O)NCCc3ccncc3)nc(-c3cccc(-c4cccc(C#N)c4)c3)c2[C@@H]1CCO
[1]
  viability index: 1.08 ± 0.081

## Cc1noc(C)c1NC(=O)N1C[C@H](O)COC[C@H]2O[C@@H](CC(=O)N[C@H]3CCN(Cc4ccccc4)C3)CC[C@@H]21
[1]
  viability index: 1.04 ± 0.011

## N#Cc1cccc(-c2ccc([C@@H]3[C@@H]4CN(C(=O)Nc5ccc(C(F)(F)F)cc5)C[C@H]3N4)cc2)c1
[1]
  viability index: 0.864 ± 0.011

## CCCNC(=O)N1[C@@H](C#N)[C@H](c2ccc(-c3ccccc3F)cc2)[C@@H]1CO
[1]
  viability index: 1.05 ± 0.04

## O=C(NCc1ccc2c(c1)OCO2)[C@H]1[C@H](CO)[C@H]2Cn3c(cccc3=O)[C@@H]1N2Cc1cncnc1
[1]
  viability index: 1.09 ± 0.035

## C/C=C/c1ccccc1[C@@H]1[C@@H](CO)N(c2ncc(CC)s2)[C@H]1C#N
[1]
  viability index: 1.12 ± 0.12

## COc1cccc(NC(=O)C[C@H]2CC[C@H]3[C@H](COc4ccc(NC(=O)C5CC5)cc4C(=O)N3C)O2)c1
[1]
  viability index: 1.16 ± 0.098

## O=C(C[C@@H]1C[C@H]2c3cc(NS(=O)(=O)c4ccccc4)ccc3O[C@H]2[C@H](CO)O1)NCC(F)(F)F
[1]
  viability index: 1.07 ± 0.016

## C/C=C/c1ccc([C@H]2[C@@H](CO)N(C(=O)C3CCC3)C23CN(C(=O)NC(C)C)C3)cc1
[1]
  viability index: 1.08 ± 0.055

## N#C[C@@H]1[C@H](c2ccccc2/C=C/c2ccccc2)[C@H](CO)N1S(=O)(=O)c1cccc(F)c1
[1]
  viability index: 1.11 ± 0.11

## COc1cccc(-c2ccc3c(c2)O[C@@H](CN(C)Cc2cccnc2)[C@H](C)CN([C@@H](C)CO)S3(=O)=O)c1
[1]
  viability index: 0.8736 ± 0.0086

## O=C1CN(S(=O)(=O)Cc2ccccc2)C[C@@H]2[C@@H](c3ccc(C#Cc4ccccc4)cc3)[C@H](CO)N12
[1]
  viability index: 1.05 ± 0.013

## C[C@@H]1CN([C@@H](C)CO)C(=O)c2cc(NC(=O)Cn3cnnn3)ccc2O[C@H]1CN(C)Cc1ccc(C(=O)Nc2ccccc2N)cc1
[1]
  viability index: 1.002 ± 0.0028

## CCCN1C[C@H](C)[C@H](OC)CN(C)C(=O)c2cc(NC(=O)C3CCC3)ccc2OC[C@@H]1C
[1]
  viability index: 1.11 ± 0.018

## COc1ccc(S(=O)(=O)N(C)C[C@@H]2OCCCC[C@H](C)Oc3ccc(NC(=O)Cc4ccccc4)cc3C(=O)N([C@@H](C)CO)C[C@H]2C)cc1
[1]
  viability index: 0.911 ± 0.17

## C[C@@H]1CCCCO[C@@H](CN(C)C(=O)NC2CCCCC2)[C@@H](C)CN([C@H](C)CO)C(=O)c2cc(N(C)C)ccc2O1
[1]
  viability index: 1.07 ± 0.02

## Cc1ccc(S(=O)(=O)N2C[C@H](O)COC[C@@H]3O[C@@H](CC(=O)NCc4ccc5c(c4)OCO5)CC[C@H]32)cc1
[1]
  viability index: 1.02 ± 0.049

## COc1ccc2c3c([C@H](CO)N(C[C@]33CN(C)C3)C(=O)Cc3ccccc3)n(C)c2c1
[1]
  viability index: 0.984 ± 0.081

## O=C(C[C@H]1CC[C@H]2[C@@H](COC[C@H](O)CN2Cc2ccc(Oc3ccccc3)cc2)O1)N1CCN(c2ccccc2)CC1
[1]
  viability index: 1.06 ± 0.071

## C[C@H]1CN([C@@H](C)CO)C(=O)c2ccccc2-c2ccccc2CO[C@H]1CN(C)S(=O)(=O)c1cccs1
[1]
  viability index: 1.03 ± 0.15

## Cc1ccc(S(=O)(=O)N(C)C[C@H]2OCCCC[C@@H](C)Oc3ccc(NC(=O)c4ccncc4)cc3C(=O)N([C@@H](C)CO)C[C@@H]2C)cc1
[1]
  viability index: 1.05 ± 0.14

## CN1c2ccc(Br)cc2[C@@H]2[C@@H](CCN2C(=O)c2ccc(F)cc2)[C@H]1CO
[1]
  viability index: 1.08 ± 0.091

## COc1cccc(NC(=O)N2[C@H](CO)[C@@H](c3ccccc3)[C@H]2CNCC(C)C)c1
[1]
  viability index: 0.952 ± 0.021

## O=C(Cc1ccccc1)N1CC(=O)N2[C@H](CO)[C@H](c3ccc(C#Cc4ccccc4)cc3)[C@H]2C1
[2]
  viability index: 0.728 ± 0.097

## CN1C(=O)c2cc(NC(=O)c3cccc(F)c3)ccc2OC[C@@H]2O[C@@H](CC(=O)NCC3CCCCC3)CC[C@H]21
[1]
  viability index: 1.09 and 1.18

## CN(C)C(=O)C[C@@H]1C[C@H]2c3cc(NC(=O)c4cccnc4)ccc3O[C@H]2[C@H](CO)O1
[1]
  viability index: 1.0233 ± 0.00094

## COc1ccc(NC(=O)N[C@H]2CC[C@@H](CCNC(=O)CN3CCOCC3)O[C@H]2CO)cc1
[1]
  viability index: 0.948 ± 0.034

## C[C@H](CO)N1C[C@H](C)[C@@H](CN(C)Cc2cccc3c2OCCCO3)OCc2ccccc2-c2ccccc2C1=O
[1]
  viability index: 1.06 ± 0.093

## N#C[C@H]1[C@H](c2ccccc2)[C@H](CO)N1C(=O)Nc1cccc(F)c1
[1]
  viability index: 1.1 ± 0.032

## CC(C)NC(=O)N1[C@H](CO)[C@@H](c2ccccc2-c2ccc(F)cc2)[C@@H]1C#N
[1]
  viability index: 1.15 ± 0.11

## COc1ccc2c3c([nH]c2c1)[C@H](CO)N(C[C@]31CCN(CC1)C(=O)Nc1ccc(F)cc1F)C(C)=O
[1]
  viability index: 0.748 ± 0.035

## CNC[C@H]1Oc2c(NS(=O)(=O)c3ccc(Cl)cc3)cccc2C(=O)N([C@H](C)CO)C[C@H]1C
[1]
  viability index: 1.02 ± 0.049

## C[C@@H](O)C#Cc1ccc([C@H]2[C@H](CO)N3CCCCN(C(=O)c4ccc5c(c4)OCO5)C[C@@H]23)cc1
[1]
  viability index: 1.03 ± 0.014

## O=C(C[C@@H]1C=C[C@H](NS(=O)(=O)c2ccccc2)[C@@H](CO)O1)NCCN1CCCCC1
[1]
  viability index: 1.159 ± 0.0091

## COc1ccc(CN2[C@H](CO)[C@H]3c4ccccc4N(C(=O)NC(C)C)C[C@H]32)cc1
[1]
  viability index: 1.03 ± 0.057

## CCCNC(=O)N1CC[C@@]2(CC1)CN([C@H](CO)c1c2c2ccc(OC)cc2n1C)C(=O)CC1CC1
[1]
  viability index: 1.048 ± 0.0064

## CCCN1C[C@@H](C)[C@H](OC)CN(C)C(=O)c2cc(NS(=O)(=O)c3ccccc3)ccc2OC[C@@H]1C
[1]
  viability index: 0.929 ± 0.033

## CCCNC(=O)N1CC2(C1)[C@@H](c1ccccc1)[C@@H](CO)N2C(=O)c1cccnc1
[1]
  viability index: 1.06 ± 0.044

## COc1ccc(-c2cn(CC[C@H]3CC[C@@H](NC(=O)c4cnccn4)[C@H](CO)O3)nn2)cc1
[1]
  viability index: 1.11 ± 0.084

## C[C@@H](O)C#Cc1ccc([C@@H]2[C@H]3CN(C(=O)c4ccc5c(c4)OCO5)CCCCN3[C@H]2CO)cc1
[1]
  viability index: 1.06 ± 0.14

## C[C@@H]1CC(=O)NCC/C=C\C[C@@H](c2ccc3c(c2)OCO3)NC1=O
[1]
  viability index: 1 ± 0.047

## C/C=C/c1ccc([C@H]2[C@H]3CN(C(=O)Nc4cccc(OC)c4)CC(=O)N3[C@H]2CO)cc1
[1]
  viability index: 1.09 ± 0.061

## COc1ccc(-c2ccccc2[C@@H]2[C@@H](C#N)N(C(=O)NC3CCCCC3)[C@H]2CO)cc1
[1]
  viability index: 1.01 ± 0.079
